Measurements reported in the supplement of paper PMC8728848.
The list shows a part of the results.

Tests used:
Test in all cases: glycan array binding signal (z-score within array); higher = stronger binding
Conditions in all cases: glycan notation: IUPAC condensed, linker removed
[1] = target: Gal(b1-3)GlcNAc(b1-3)Gal(b1-4)GlcNAc(b1-2)[Gal(b1-3)GlcNAc(b1-3)Gal(b1-4)GlcNAc(b1-6)]Man(a1-6)[Gal(b1-3)GlcNAc(b1-3)Gal(b1-4)GlcNAc(b1-2)Man(a1-3)]Man(b1-4)GlcNAc(b1-4)[Fuc(a1-6)]GlcNAc
Procedure, shortened: (§1)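 The binding signal is a Z-score computed within each array. Data were drawn from 3228 arrays in the Consortium for Functional Glycomics database, restricted to those with a known protein sequence. Scores were averaged over arrays of the same protein sequence at different concentrations or buffers, and over linkers, and negative values can be taken as non-binding.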

[2] = target: Gal(b1-3)GlcNAc(b1-3)Gal(b1-4)GlcNAc(b1-3)Gal(b1-4)GlcNAc(b1-2)[Gal(b1-3)GlcNAc(b1-3)Gal(b1-4)GlcNAc(b1-3)Gal(b1-4)GlcNAc(b1-6)]Man(a1-6)[Gal(b1-3)GlcNAc(b1-3)Gal(b1-4)GlcNAc(b1-3)Gal(b1-4)GlcNAc(b1-2)Man(a1-3)]Man(b1-4)GlcNAc(b1-4)[Fuc(a1-6)]GlcNAc
Procedure, shortened: as §1

[3] = target: Gal(b1-3)GlcNAc(b1-3)Gal(b1-4)GlcNAc(b1-6)[Gal(b1-3)GlcNAc(b1-3)]Gal(b1-4)Glc
Procedure, shortened: as §1

[4] = target: Gal(b1-3)GlcNAc(b1-3)Gal(b1-4)[Fuc(a1-3)]GlcNAc
Procedure, shortened: as §1

[5] = target: Gal(b1-3)GlcNAc(b1-3)Gal(b1-4)[Fuc(a1-3)]GlcNAc(b1-6)[Gal(b1-3)GlcNAc(b1-3)]Gal(b1-4)Glc
Procedure, shortened: as §1

[6] = target: Gal(b1-3)GlcNAc(b1-3)GalNAc
Procedure, shortened: as §1

[7] = target: Gal(b1-3)GlcNAc(b1-6)Gal(b1-4)GlcNAc
Procedure, shortened: as §1

[8] = target: Gal(b1-3)GlcNAc(b1-6)GalNAc
Procedure, shortened: as §1

[9] = target: Gal(b1-3)GlcNAc(b1-6)[Gal(b1-3)]GalNAc
Procedure, shortened: as §1

Gal(b1-3)GlcNAc6S = target: Gal(b1-3)GlcNAc6S
Procedure, shortened: as §1

[10] = target: Gal(b1-3)[Fuc(a1-4)]GlcNAc
Procedure, shortened: as §1

[11] = target: Gal(b1-3)[Fuc(a1-4)]GlcNAc(b1-2)Man
Procedure, shortened: as §1

[12] = target: Gal(b1-3)[Fuc(a1-4)]GlcNAc(b1-2)Man(a1-3)[Gal(b1-3)[Fuc(a1-4)]GlcNAc(b1-2)Man(a1-6)]Man(b1-4)GlcNAc(b1-4)[Fuc(a1-6)]GlcNAc
Procedure, shortened: as §1

[13] = target: Gal(b1-3)[Fuc(a1-4)]GlcNAc(b1-3)Gal(b1-3)[Fuc(a1-4)]GlcNAc
Procedure, shortened: as §1

[14] = target: Gal(b1-3)[Fuc(a1-4)]GlcNAc(b1-3)Gal(b1-4)[Fuc(a1-3)]GlcNAc
Procedure, shortened: as §1

[15] = target: Gal(b1-3)[Fuc(a1-4)]GlcNAc(b1-6)GalNAc
Procedure, shortened: as §1

[16] = target: Gal(b1-3)[GlcNAc(b1-6)]GalNAc
Procedure, shortened: as §1

[17] = target: Gal(b1-3)[Neu5Ac(a2-6)]GalNAc
Procedure, shortened: as §1

[18] = target: Gal(b1-3)[Neu5Ac(a2-6)]GlcNAc(b1-4)Gal(b1-4)Glc
Procedure, shortened: as §1

[19] = target: Gal(b1-3)[Neu5Ac(b2-6)]GalNAc
Procedure, shortened: as §1

Gal(b1-4)Gal = target: Gal(b1-4)Gal
Procedure, shortened: as §1

[20] = target: Gal(b1-4)GalNAc(a1-3)[Fuc(a1-2)]Gal(b1-4)GlcNAc
Procedure, shortened: as §1

[21] = target: Gal(b1-4)GalNAc(b1-3)[Fuc(a1-2)]Gal(b1-4)GlcNAc
Procedure, shortened: as §1

Gal(b1-4)Glc = target: Gal(b1-4)Glc
Procedure, shortened: as §1

Gal(b1-4)Glc6S = target: Gal(b1-4)Glc6S
Procedure, shortened: as §1

Gal(b1-4)GlcNAc = target: Gal(b1-4)GlcNAc
Procedure, shortened: as §1

[22] = target: Gal(b1-4)GlcNAc(a1-6)Gal(b1-4)GlcNAc
Procedure, shortened: as §1

Gal(b1-4)GlcNAc(b1-2)Man = target: Gal(b1-4)GlcNAc(b1-2)Man
Procedure, shortened: as §1

[23] = target: Gal(b1-4)GlcNAc(b1-2)Man(a1-3)Man(b1-4)GlcNAc(b1-4)GlcNAc
Procedure, shortened: as §1

[24] = target: Gal(b1-4)GlcNAc(b1-2)Man(a1-3)[Gal(b1-4)GlcNAc(b1-2)Man(a1-6)]Man(b1-4)GlcNAc(b1-4)GlcNAc
Procedure, shortened: as §1

[25] = target: Gal(b1-4)GlcNAc(b1-2)Man(a1-3)[Gal(b1-4)GlcNAc(b1-2)Man(a1-6)]Man(b1-4)GlcNAc(b1-4)[Fuc(a1-6)]GlcNAc
Procedure, shortened: as §1

[26] = target: Gal(b1-4)GlcNAc(b1-2)Man(a1-3)[Gal(b1-4)GlcNAc(b1-2)Man(a1-6)][Gal(b1-4)GlcNAc(b1-4)]Man(b1-4)GlcNAc(b1-4)[Fuc(a1-6)]GlcNAc
Procedure, shortened: as §1

[27] = target: Gal(b1-4)GlcNAc(b1-2)Man(a1-3)[Gal(b1-4)GlcNAc(b1-2)Man(a1-6)][GlcNAc(b1-4)]Man(b1-4)GlcNAc(b1-4)[Fuc(a1-6)]GlcNAc
Procedure, shortened: as §1

[28] = target: Gal(b1-4)GlcNAc(b1-2)Man(a1-3)[GlcNAc(b1-2)Man(a1-6)]Man(b1-4)GlcNAc(b1-4)GlcNAc
Procedure, shortened: as §1

[29] = target: Gal(b1-4)GlcNAc(b1-2)Man(a1-3)[GlcNAc(b1-4)][Gal(b1-4)GlcNAc(b1-2)Man(a1-6)]Man(b1-4)GlcNAc(b1-4)GlcNAc
Procedure, shortened: as §1

[30] = target: Gal(b1-4)GlcNAc(b1-2)Man(a1-3)[Man(a1-6)]Man(b1-4)GlcNAc(b1-4)GlcNAc
Procedure, shortened: as §1

[31] = target: Gal(b1-4)GlcNAc(b1-2)Man(a1-6)Man(b1-4)GlcNAc(b1-4)GlcNAc
Procedure, shortened: as §1

[32] = target: Gal(b1-4)GlcNAc(b1-2)Man(a1-6)[GlcNAc(b1-2)Man(a1-3)]Man(b1-4)GlcNAc(b1-4)GlcNAc
Procedure, shortened: as §1

B1: PX9961X-pdi-531-24-531 (Parabacteroides distasonis) (protein)
chain: DLTEEIHSSVIAENYYNNAGEVMAAMMRPWGHFCGTMQVAQSPWSCNELSSDCAAWPQKGRHGYDNGDWIRLHRHQWIPTDGQVVDAWKKLFEGIGYANNFLTDTENIDFEALQVPMSKAQAQAEMRVYRAYCYWYVMDMFGTAPICEKIGEINPSSKSRAELFAWIEKELNESIPSLSESKTETYGRVSKWGAYALLARLYLNAEIYTGQARWDDCIAACDELAKGGFALDKKWNDTFRADNDKRSTEIIWSIVYDEVYAKGMGWYQRWLHYAHQTGWDLQSGPWNGLVTQPTFYDSFADNDLRKIEGFLIGKQYPRKVDENGNYYYDTTAEPLKGSEEYNGQDLVFVNYIKSMTEGEENSGARSIKYEIQPGTTGDMNNDWVMFRYSEVIYNKAEALMRKNGGKATQEVVDMINSVRQRSFKAEDWEKAKYTTATLTMDEFLAEKGREFAFEGIRRTDLVRFNKFVTTSWWDKTASNEPKRNIFPIPQRQLDANANLSPNEANSLF
glycan array binding signal (z-score) [1]: 3.82
glycan array binding signal (z-score) [2]: 7.05
glycan array binding signal (z-score) [3]: -0.321
glycan array binding signal (z-score) [4]: -0.243
glycan array binding signal (z-score) [5]: -1.05
glycan array binding signal (z-score) [6]: 0.46
glycan array binding signal (z-score) [7]: -0.683
glycan array binding signal (z-score) [8]: 1.52
glycan array binding signal (z-score) [9]: 0.663
glycan array binding signal (z-score) (Gal(b1-3)GlcNAc6S): -0.444
glycan array binding signal (z-score) [10]: -0.465
glycan array binding signal (z-score) [11]: 0.539
glycan array binding signal (z-score) [12]: 0.756
glycan array binding signal (z-score) [13]: -0.606
glycan array binding signal (z-score) [14]: -0.466
glycan array binding signal (z-score) [15]: 0.118
glycan array binding signal (z-score) [16]: 0.287
glycan array binding signal (z-score) [17]: -0.162
glycan array binding signal (z-score) [18]: -0.575
glycan array binding signal (z-score) [19]: -0.831
glycan array binding signal (z-score) (Gal(b1-4)Gal): -0.436
glycan array binding signal (z-score) [20]: -0.606
glycan array binding signal (z-score) [21]: 0.019
glycan array binding signal (z-score) (Gal(b1-4)Glc): 0.099
glycan array binding signal (z-score) (Gal(b1-4)Glc6S): 1.04
glycan array binding signal (z-score) (Gal(b1-4)GlcNAc): -0.188
glycan array binding signal (z-score) [22]: 0.827
glycan array binding signal (z-score) (Gal(b1-4)GlcNAc(b1-2)Man): 0.413
glycan array binding signal (z-score) [23]: 0.054
glycan array binding signal (z-score) [24]: -0.85
glycan array binding signal (z-score) [25]: 0.562
glycan array binding signal (z-score) [26]: -0.513
glycan array binding signal (z-score) [27]: -0.474
glycan array binding signal (z-score) [28]: -0.26
glycan array binding signal (z-score) [29]: 0.027
glycan array binding signal (z-score) [30]: 0.551
glycan array binding signal (z-score) [31]: -0.241
glycan array binding signal (z-score) [32]: 0.345
